Results published in the RNAGym collection of RNA variant scans (doi:10.1093/nar/gkz1192).
Read counts are not given, so values of variants with three or more changes are uncertain.

B1: CPEB3 Ribozyme (parent)
chain: UAACAGGGGGCCACAGCAGAAGCGUUCACGUCGCAGCCCCUGUCAGAUUCUGGUGAAUCUGCGAAUUCUGCUGUAUAUCUC

Variants of: B1
Assay: self-cleavage, relative activity (ratio to wild type); higher = more cleavage; in vitro, sequencing
Outline: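 Relative activity was defined as the cleaved/total read fraction for a variant divided by the same fraction for the unmutated ribozyme. CPEB3 self-cleaving ribozyme libraries were made by rounds of error-prone PCR, barcoded, and transcribed in vitro with T7 RNA polymerase for 5 hours at 37°C, and cleavage ran through transcription plus a 15 min DNase I step before EDTA. Illumina sequencing of template-switched reverse transcripts gave the reads, and DNA sequencing mapped the barcodes. Averages come from three batches, using variants with at least 5 reads.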
For C38U C62U A75U, the self-cleavage was 0.56. Work on C38U C68U U69A A75U yielded a self-cleavage of 0.26. For C38U G46A U66C A77U, the self-cleavage was 0.06. Work on C38U G63U U67C A75G yielded a self-cleavage of 0.09. Variant C38U U41A U60C U80C has a self-cleavage of 0.2. In the case of C38U U41C U48C, the self-cleavage is reported as 0.54. In the case of C38U U41C U49C, the self-cleavage is reported as 0.29. With C38U U41C U51C A64G the self-cleavage was 0.51. Work on C38U U43A A56G U60A yielded a self-cleavage of 0.29. For C38U U48A U80C, the self-cleavage was 0.21. C38U U49A C50A showed a self-cleavage of 0.21. In the case of C38U U54A U78A, the self-cleavage is reported as 0.67. C38U U54G C62U U76C showed a self-cleavage of 0.11. Variant C38U U60A U66A A75U has a self-cleavage of 0.09. Variant C38U U66C G70A has a self-cleavage of 0.19. In the case of C38U U66C U72C, the self-cleavage is reported as 0.24. Variant C38U U67A G70A has a self-cleavage of 0.41. For C38U U69C U78C, the self-cleavage was 0.56. C39A A45G U74C gave a self-cleavage of 0.55. In the case of C39A A45U G46C A64G A77G, the self-cleavage is reported as 0.18. Variant C39A A45U G46C G53A A77G has a self-cleavage of 0.21. In the case of C39A A47G A57G, the self-cleavage is reported as 0.08. C39A A47G U51A gave a self-cleavage of 0.26. Work on C39A C40U U54C U67G U69C U80A yielded a self-cleavage of 0.08. In the case of C39A C50U A57G A64U U69A, the self-cleavage is reported as 0.07. Variant C39A U41A A75G has a self-cleavage of 0.07. C39A U41A U76G U78C gave a self-cleavage of 0.25. C39A U41C A47U showed a self-cleavage of 0.15. Variant C39A U41C U67C has a self-cleavage of 0.14. In the case of C39A U43C G53A, the self-cleavage is reported as 0.26. In the case of C39A U43C U60A U74A, the self-cleavage is reported as 0.19. Variant C39A U48C U69G U72C has a self-cleavage of 0.08. Variant C39A U49A A56G has a self-cleavage of 0.17. For C39A U49G U72C, the self-cleavage was 0.06. For C39A U51G A57G G70A U72A U80C, the self-cleavage was 0.05. With C39A U58A U69A the self-cleavage was 0.33. Work on C39A U60C G73C yielded a self-cleavage of 0.53. For C39G A57U U67C, the self-cleavage was 0.05. C39G U41A C68U U76A gave a self-cleavage of 0.06. In the case of C39G U43C U58A U80C, the self-cleavage is reported as 0.17. C39G U51C U66C U72G showed a self-cleavage of 0.12. C39G U58C A64U U66C gave a self-cleavage of 0.07. C39U A45G G63A showed a self-cleavage of 0.51. C39U A45G U48A U51G U80A gave a self-cleavage of 0.09. Variant C39U A45G U51A has a self-cleavage of 0.37. With C39U A45U G53A U60C U72C the self-cleavage was 0.31. In the case of C39U A56G U78A, the self-cleavage is reported as 0.33. C39U C40U U58A U69C showed a self-cleavage of 0.18. Variant C39U C40U U60C C81A has a self-cleavage of 0.1. Variant C39U G46A A64G has a self-cleavage of 0.14. C39U G46U A64G U72A A75G showed a self-cleavage of 0.05. With C39U G63U U67A the self-cleavage was 0.25. Variant C39U U41C A47G has a self-cleavage of 0.75. Variant C39U U43A U72C U74C U78C has a self-cleavage of 0.96. With C39U U48A U78A the self-cleavage was 0.16. With C39U U48C U72A the self-cleavage was 0.27. C39U U49C A56G U69A gave a self-cleavage of 0.34. With C39U U49C U72C the self-cleavage was 0.26. Variant C39U U51A A56U U60C has a self-cleavage of 0.1. C39U U51C C62U gave a self-cleavage of 0.34. C39U U60A U69A gave a self-cleavage of 0.06. In the case of C40A A45C A57U A65G U67C, the self-cleavage is reported as 0.08. C40A A45G A56G U72C U80C gave a self-cleavage of 0.03. For C40A A45G A65U, the self-cleavage was 0.43. C40A A45G U48C U58C A64G U67C U76C gave a self-cleavage of 0.17. Variant C40A A45G U60C has a self-cleavage of 0.23. In the case of C40A A45U A56U, the self-cleavage is reported as 0.16. C40A A45U A56U A77G gave a self-cleavage of 0.14. With C40A A64G U66C the self-cleavage was 0.08. Variant C40A A64G U80A has a self-cleavage of 0.12. C40A C50A A56G A77G showed a self-cleavage of 0.1. C40A U41A A45C showed a self-cleavage of 0.33. In the case of C40A U41A U54C, the self-cleavage is reported as 0.22. For C40A U41C U49C A56G, the self-cleavage was 0.22. With C40A U41G U69A U80A the self-cleavage was 0.18. Variant C40A U43C G53A has a self-cleavage of 0.14. In the case of C40A U43C U60A, the self-cleavage is reported as 0.12. Variant C40A U43C U60G C62A A75C has a self-cleavage of 0.1. Variant C40A U43G U60C A65G has a self-cleavage of 0.26. With C40A U48A G52A U69A U72C U78C the self-cleavage was 0.06. Work on C40A U49C A75U yielded a self-cleavage of 0.17. In the case of C40A U60C G70A U76A, the self-cleavage is reported as 0.08. With C40A U60C U66A U74G the self-cleavage was 0.09. In the case of C40A U60C U78A, the self-cleavage is reported as 0.2. For C40A U69A U72A, the self-cleavage was 0.16. Variant C40G A45G U51A U60C A77U has a self-cleavage of 0.14. Variant C40G A45U U69G has a self-cleavage of 0.12. Variant C40G A47G U51A G55A U60C has a self-cleavage of 0.16. Work on C40G A47U U72C yielded a self-cleavage of 0.04. With C40G A56G A65G U80G the self-cleavage was 0.36. In the case of C40G G52C U80A, the self-cleavage is reported as 0.09. C40G G61A A65U showed a self-cleavage of 0.13. C40G U41A A75G gave a self-cleavage of 0.15. C40G U43C A77G gave a self-cleavage of 0.2. Variant C40U A45G U51C has a self-cleavage of 0.53. In the case of C40U A45U A64G, the self-cleavage is reported as 0.42. Variant C40U A45U U60C has a self-cleavage of 0.18. C40U A47G A64U U66A showed a self-cleavage of 0.14. Work on C40U A47G U51C yielded a self-cleavage of 0.23. With C40U A57G U58A the self-cleavage was 0.05. C40U A57U U72A gave a self-cleavage of 0.15. For C40U C44A A57G, the self-cleavage was 0.1. In the case of C40U C44A G55A U66C, the self-cleavage is reported as 0.04. In the case of C40U C44U C68U U80A, the self-cleavage is reported as 0.08. Variant C40U C59A A65G has a self-cleavage of 0.1. Variant C40U G52A A56G U69A U74C has a self-cleavage of 0.27. C40U G52C A64C showed a self-cleavage of 0.19. Work on C40U U41A U48C G55U U80C yielded a self-cleavage of 0.2. With C40U U41A U54C C68A the self-cleavage was 0.16. C40U U41A U67C gave a self-cleavage of 0.14. Variant C40U U41C A47U U51C G55C has a self-cleavage of 0.14. For C40U U41C U67C C68G U78C, the self-cleavage was 0.15. In the case of C40U U41C U69C, the self-cleavage is reported as 0.49. In the case of C40U U43A C44G U58C, the self-cleavage is reported as 0.26. In the case of C40U U43A U66C U80C, the self-cleavage is reported as 0.2. C40U U43C A57G U58C gave a self-cleavage of 0.18. For C40U U43C G53U, the self-cleavage was 0.3. C40U U43C U48C U60C showed a self-cleavage of 0.08. C40U U43C U49G showed a self-cleavage of 0.09. C40U U43C U60C U72C showed a self-cleavage of 0.19. With C40U U43C U67C the self-cleavage was 0.52. C40U U48C C59U C81U showed a self-cleavage of 0.09. Variant C40U U48C U54A U67A has a self-cleavage of 0.16. C40U U48C U60A U78C gave a self-cleavage of 0.09. In the case of C40U U48C U76C, the self-cleavage is reported as 0.2. C40U U49C U69A showed a self-cleavage of 0.16. For C40U U51A A57G, the self-cleavage was 0.49. For C40U U51A G63A U76C, the self-cleavage was 0.38. With C40U U51C A65G the self-cleavage was 0.1. In the case of C40U U51C A65G U72C, the self-cleavage is reported as 0.1. For C40U U58C A65G, the self-cleavage was 0.15. Variant C40U U58C G61A has a self-cleavage of 0.16. C40U U60A G63U showed a self-cleavage of 0.37. For C40U U66C U72C, the self-cleavage was 0.16. Work on C40U U74A C79A yielded a self-cleavage of 1.22. Work on U41A A45C A75U U76C yielded a self-cleavage of 0.13. U41A A45C A75U U78A showed a self-cleavage of 0.25. In the case of U41A A45G A47G U69A, the self-cleavage is reported as 0.33. Variant U41A A45G A57G U78C has a self-cleavage of 0.22. Work on U41A A45G U51C yielded a self-cleavage of 0.09. Work on U41A A45G U54C yielded a self-cleavage of 0.15. U41A A45G U54C U60A gave a self-cleavage of 0.15. In the case of U41A A45G U78G, the self-cleavage is reported as 0.28. For U41A A45U A64U U66A U69C U78C, the self-cleavage was 0.07. U41A A45U G63A gave a self-cleavage of 0.13. Variant U41A A45U U54G U80C has a self-cleavage of 0.43. U41A A47C U49C U69C A77G gave a self-cleavage of 0. In the case of U41A A47C U51C U66A U78C, the self-cleavage is reported as 0.05. U41A A47G A57G U66C showed a self-cleavage of 0.17. With U41A A47G A65G U69C the self-cleavage was 0.17. U41A A47G A77G gave a self-cleavage of 0.14. Work on U41A A47G C62U yielded a self-cleavage of 0.22. U41A A47G G53A U78C showed a self-cleavage of 0.06. Variant U41A A47G U54A A65G U67C U72C has a self-cleavage of 0.03. In the case of U41A A47U A57U U60G, the self-cleavage is reported as 0.1. U41A A47U U54A A64G gave a self-cleavage of 0.09. For U41A A47U U76C, the self-cleavage was 0.14. With U41A A56G U67A U78A the self-cleavage was 0.05. Variant U41A A56G U72C has a self-cleavage of 0.36. Work on U41A A56G U78C yielded a self-cleavage of 0.17. U41A A56U U60G U69C G70A showed a self-cleavage of 0.06. Work on U41A A56U U66A U80C yielded a self-cleavage of 0.16. For U41A A56U U80A, the self-cleavage was 0. Variant U41A A57C U69C U74A has a self-cleavage of 0.09. For U41A A57G A64U A65U G73A, the self-cleavage was 0.06. U41A A57U U74C showed a self-cleavage of 0.1. U41A A64G U72C gave a self-cleavage of 0.11.
